From paper PMC4860839, “Structures of the APC–ARM domain in complexes with discrete Amer1/WTX fragments reveal that it uses a consensus mode to recognize its binding partners” (Cell Discovery, 2015) come the findings set out here.

No constants are given. Whether binding was seen depends on the method and setting. Some binding calls cover weakened binding; strength is not graded here. For part of these data: Tags and fused reporters may be left off the sequences shown.

For experiment [1], the target named is T1, GST-Amer1 (496–508), core A2 (human).
T1 construct: human Amer1/WTX residues 496–508; The results call the ITC samples peptides; the ITC methods name GST-Amer1 proteins; also called Amer1-A2; not shown: GST, N-terminal, kept
T1 chain: PRDSYSGDALYEF
Briefly: pull-down; GST-Amer1 fragments pre-immobilised on the GST affinity column, APC–ARM protein added at 4 °C; wash 25 mM Tris-HCl pH 8.0, 250 mM NaCl, 1 mM EDTA, 14 mM β-mercaptoethanol; glutathione elution, SDS–PAGE, Coomassie; both purified.

Experiment [2] addresses T2, GST-Amer1 (325–335), core A1 (human).
T2 construct: human Amer1/WTX residues 325–335; The results call the ITC samples peptides; the ITC methods name GST-Amer1 proteins; also called Amer1-A1; not shown: GST, N-terminal, kept
T2 chain: LTGCGDIIAEQ
The experiment is described as above.

Experiment [3] has as its target T1, GST-Amer1 (496–508), core A2. Briefly: ITC; ITC200, 25 °C; 50 mM HEPES pH 7.5, 300 mM NaCl, 1 mM EDTA; typically 200 μM APC–ARM injected into 20 μM GST-Amer1 fragment, or 1 mM GST-Amer1 fragment into 80 μM APC–ARM; single-site model; both purified. (In general: Isothermal titration calorimetry measures the heat released or taken up as one component is titrated into another.)

Experiment [4] deals with T2, GST-Amer1 (325–335), core A1. The experiment is described as above.
The target in experiment [5] is T3, Amer1 (496–508) L505D (human) (UniProt Q5JTC6).
T3 sequence: PRDSYSGDADYEF
The description is as above.

Experiment [6] deals with T4, Amer1 (496–508) D503A (human) (UniProt Q5JTC6).
T4 sequence: PRDSYSGAALYEF
The experiment is described as above.

Experiment [7] deals with pBTM-APC–ARM (residues 308–789), two-hybrid bait (human) (UniProt P25054). Briefly: two-hybrid; L40 yeast, APC–ARM in pBTM116 (bait), Amer1 sites in pVP16 (prey); β-galactosidase activity and growth on –His; 7 mM (A4) or 10 mM (A1, A2, A3) 3-aminotriazole.
In experiment [8] the target is pBTM-APC–ARM (residues 308–789) K516E (human) (UniProt P25054). Described as above.
For experiment [9], the target named is pBTM-APC–ARM (residues 308–789) R549E (human) (UniProt P25054). The experiment is described as above.
In experiment [10] the target is pBTM-APC–ARM (residues 308–789) M717K (human) (UniProt P25054). The description is as above.
Experiment [11] has as its target pBTM-APC–ARM (residues 308–789) N507K (human) (UniProt P25054). The experiment is described as above.
Experiment [12] addresses pBTM-APC–ARM (residues 308–789) N550K (human) (UniProt P25054). Described as above.
Experiment [13] deals with T5, Amer1 (766–777) (human) (UniProt Q5JTC6).
T5 sequence: TVSFSQALVEFT
Briefly: pull-down; GST-Amer1 fragments pre-immobilised on the GST affinity column, APC–ARM protein added at 4 °C; wash 25 mM Tris-HCl pH 8.0, 250 mM NaCl, 1 mM EDTA, 14 mM β-mercaptoethanol; glutathione elution, SDS–PAGE, Coomassie; both purified.

Experiment [14] addresses T6, Amer1 (786–823) (human) (UniProt Q5JTC6).
T6 sequence: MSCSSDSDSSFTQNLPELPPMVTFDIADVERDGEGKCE
The description is as above.

The target of experiment [15] is T5, Amer1 (766–777) (human). Briefly: ITC; ITC200, 25 °C; 50 mM HEPES pH 7.5, 300 mM NaCl, 1 mM EDTA; typically 200 μM APC–ARM injected into 20 μM GST-Amer1 fragment, or 1 mM GST-Amer1 fragment into 80 μM APC–ARM; single-site model; both purified.
Experiment [16] deals with T6, Amer1 (786–823) (human). The description is as above.

Turning to “APC (407–751) N507K (from UniProt P25054 407-751) (domain or fragment)”, the binding entry in experiment [1], in [2], in experiment [3] and in [4] was “no binding” each time.

With “APC (407–751) K516E (from UniProt P25054 407-751) (domain or fragment)”, the binding result in [3] and in experiment [4] was “no binding” throughout.

B1: APC–ARM, human APC (407–751), N-terminally His-tagged (domain or fragment, UniProt P25054 407-751, looked up)
chain: LHLLEQIRAYCETCWEWQEAHEPGMDQDKNPMPAPVEHQICPAVCVLMKLSFDEEHRHAMNELGGLQAIAELLQVDCEMYGLTNDHYSITLRRYAGMALTNLTFGDVANKATLCSMKGCMRALVAQLKSESEDLQQVIASVLRNLSWRADVNSKKTLREVGSVKALMECALEVKKESTLKSVLSALWNLSAHCTENKADICAVDGALAFLVGTLTYRSQTNTLAIIESGGGILRNVSSLIATNEDHRQILRENNCLQTLLQHLKSHSLTIVSNACGTLWNLSARNPKDQEALWDMGAVSMLKNLIHSKHKMIAMGSAAALRNLMANRPAKYKDANIMSPGSSLPS
notes: human APC, armadillo repeat (ARM) domain, residues 407–751; source: E. coli BL21(DE3), purified (Ni2+-NTA, Superdex200)
For B1, the binding result in [5] and in experiment [6] was “no binding” throughout.

B2: Amer1-A3 (murine, residues 721–838), two-hybrid prey (domain or fragment, UniProt Q7TS75 721-838)
chain: CLMQLFQSDAMFEPDMQEANFGGSPRKAYPSYSPPEEPEEEEEEKEGNATVSFSQALVEFTSNGNLFTSMSYSSDSDSSFTQNLPELPPMVTFDIADVERDGEGKCEENPEFNNDEDL
Turning to B2, the binding result is given as “binds” in [7]; “binds” in experiment [8]; “binds” in experiment [9]; “no binding” in [10]; “binds” in experiment [11]; “binds” in experiment [12].

B3: APC–ARM, human APC (407–775), N-terminally His-tagged (domain or fragment, UniProt P25054 407-775, looked up)
chain: LHLLEQIRAYCETCWEWQEAHEPGMDQDKNPMPAPVEHQICPAVCVLMKLSFDEEHRHAMNELGGLQAIAELLQVDCEMYGLTNDHYSITLRRYAGMALTNLTFGDVANKATLCSMKGCMRALVAQLKSESEDLQQVIASVLRNLSWRADVNSKKTLREVGSVKALMECALEVKKESTLKSVLSALWNLSAHCTENKADICAVDGALAFLVGTLTYRSQTNTLAIIESGGGILRNVSSLIATNEDHRQILRENNCLQTLLQHLKSHSLTIVSNACGTLWNLSARNPKDQEALWDMGAVSMLKNLIHSKHKMIAMGSAAALRNLMANRPAKYKDANIMSPGSSLPSLHVRKQKALEAELDAQHLSETFDN
notes: human APC, ARM domain, residues 407–775; source: E. coli BL21(DE3), purified (Ni2+-NTA, Superdex200)
For B3, the binding result with Amer1 (766–777) (human) [13], with Amer1 (786–823) (human) [14], with Amer1 (766–777) (human) [15] and in the experiment with Amer1 (786–823) (human) [16] was “no binding” throughout.
